According to PubChem BioAssay AID624296 (National Center for Advancing Translational Sciences (NCATS), 2012):
In all, about 350,000 compounds went through this assay and about 9,900 (2.8%) were called active. The shares of active, inactive and inconclusive entries below differ from those in the screen. The call rests on the fitted dose curve; in most records, active means well fitted activation curve with a large enough effect; inconclusive means small, poorly fitted or top-dose-only effect; inactive means no such curve, though single readings can be large or run the other way. No potency is given beside an inconclusive call; the fits are too rough.

assay: A quantitative high throughput screen for small molecules that induce DNA re-replication in MCF 10a normal breast cells.; further: nearly all actives have a fitted effect of over 50% in size; settings: MCF 10A DNA re-replication, Hoechst nuclear intensity, 48 h; series mostly up to 46.1 µM
Potency means the concentration at half of the fitted maximal effect; tags describe the fitted curve by direction and shape.

| SMILES | Potency |
| --- | --- |
| COn1c(SCc2ccc(C)cc2C)nc2ccccc2c1=O | inconclusive [activator, single point] |
| COc1ccc(OC)c(NC(=O)Cn2cc(C(=O)c3ccco3)c3ccccc32)c1 | inactive |
| CCc1ccc2oc(-c3ccc(OC)cc3)cc(=Nc3c(C)n(C)n(-c4ccccc4)c3=O)c2c1 | inconclusive [activator, partial curve, poor fit] |
| N=c1nc(N)nc2n1NC(c1ccc(F)cc1)=CS2 | inconclusive [activator, partial curve, poor fit] |
| CCOc1ccc(S(=O)(=O)Oc2ccc3ccccc3c2)cc1 | inconclusive [activator, single point] |
| CCCN1CNC(=S)N(c2ccc(C)cc2C)C1 | inactive |
| O=C(CN1C(=O)NC(c2ccccc2)(c2ccccc2)C1=O)NCCc1ccc(F)cc1 | inconclusive [activator, single point] |
| CN1CCN(NC(=O)CN2C(=O)/C(=C/c3ccccc3Cl)SC2=S)CC1 | inactive |
| O=C(COc1ccc(Br)cc1)Nc1ccccc1N1CCCC1 | inconclusive [activator, full curve, poor fit] |
| COc1cc(C2C3=C(Nc4ncnn42)c2ccccc2CC3)cc(OC)c1OC (stereo not drawn) | inconclusive [activator, full curve] |
| COc1ccc(S(=O)(=O)N2CC(C)OC(C)C2)cc1C(=O)N1CCCCC1 (stereo not drawn) | inconclusive [activator, partial curve, poor fit] |
| Cc1ccc(Oc2ccccc2/C=C/C(=O)O)cc1 | inconclusive [activator, partial curve, poor fit] |
| CC1CCCN(S(=O)(=O)c2ccc3c(c2)c(=O)nc2ccc(Cl)cn23)C1 (stereo not drawn) | active: 4.61 µM |
| C=CCn1c(COc2ccccc2)nnc1SC(C)C(=O)N/N=C/c1cc(Cl)ccc1O (stereo not drawn) | inconclusive [activator, partial curve] |
| Cc1ccc(N2C(=O)CSC2c2cccnc2)c(Cl)c1 (stereo not drawn) | inconclusive [activator, partial curve] |
| COc1cc(/C=C(/C#N)C(=O)Nc2ccccc2)c(Br)cc1OCc1ccc(C(=O)O)cc1 | inconclusive [activator, single point] |
| O=C(O)C1CCC(=O)N1Cc1ccc(F)cc1 (stereo not drawn) | active: 16.4 µM |
| CCc1ccc2c(c1)[C@]1(C(=O)N2)[C@@H]2C(=O)N(Cc3ccccc3)C(=O)[C@@H]2[C@@H]2CCCN21 | inconclusive [activator, partial curve, poor fit] |
| COc1c(C)c2c(c(O)c1CC=C(C)CCC(=O)OCCN1CCOCC1)C(=O)OC2 | inactive |
| CC1(C)Cc2c(C#N)c(N3CCOCC3)nc(Cc3ccccc3)c2CO1 | inconclusive [activator, single point] |
| COc1ccc(-c2nnc(SCC(=O)Nc3ccc(Cl)cc3)n2C)cc1 | active: 3.26 µM |
| Oc1c(Br)cc(Br)cc1CNc1ccc(F)cc1 | inconclusive [activator, single point] |

| SMILES | Potency |
| --- | --- |
| C(=Cc1c[nH]c2ccccc12)c1ccc2ccccc2n1 | active: 0.92 µM |
| CCc1ccc(-c2cc(C(F)(F)F)n3nc(C(=O)Nc4c(C)nn(Cc5ccc(F)cc5)c4C)cc3n2)s1 | inconclusive [activator, partial curve, poor fit] |
| CC1Cc2nc(SCC(=O)N3CCN(c4ccccc4)CC3)n(CCc3ccccc3)c(=O)c2S1 (stereo not drawn) | inactive |
| Cc1ccc(-n2cc(S(=O)(=O)c3ccc(C)cc3)[nH]c2=O)cc1 | inconclusive [activator, partial curve, poor fit] |
| COC(=O)C1=C(C)NC(C)=C(C(=O)OC)C1/C=C/c1ccccc1 | inconclusive [activator, single point] |
| COc1cccc(N2CCN(C(=O)CN(C)S(=O)(=O)c3ccc4c(c3)c(=O)n(C)c(=O)n4C)CC2)c1 | inactive |
| CCC(Sc1nc2cc3c(cc2c(=O)n1Cc1ccco1)OCO3)C(=O)Nc1cccc(OC)c1 (stereo not drawn) | inconclusive [activator, partial curve, poor fit] |
| Cc1cccc(CSc2nc3ccncc3n2CC(=O)Nc2cc(C)cc(C)c2)c1 | inconclusive [activator, single point] |
| CCOc1ccc(/C=N/Nc2nc(N3CCCC3)nc(N3CCCC3)n2)cc1OC | inactive |
| Cc1ccc(C(C(=O)NCc2ccccc2)N(C(=O)c2csnn2)C2CC2)cc1 (stereo not drawn) | inconclusive [activator, single point] |
| Cc1cc(C)c(C)c(C(=O)C(=O)c2ccccc2)c1 | inactive |
| COc1cccc(NC(=O)CN(C)C(=O)/C=C/c2cn(Cc3ccccc3)nc2-c2cccnc2)c1 | inconclusive [activator, single point] |
| CC(=O)N1N=C(c2ccccc2)OC12CCCC2 | inconclusive [activator, full curve, poor fit] |
| O=C(CN1CCCCC1)N1CCc2ccccc21 | inactive |
| NC(=O)C1=C[C@@H](c2coc3ccccc3c2=O)C[C@@H](OCCCCO)O1 | inconclusive [activator, single point] |
| CCOC(=O)c1c(C)oc2c1c1c(c3ccccc32)OCN(CCCC(=O)O)C1 | inconclusive [activator, single point] |
| O=C(Nc1ccc2ncccc2c1)c1ccccc1Cl | inactive |
| CC(C)OC(=O)CC1C(=O)NCCN1C(=S)NC(=O)c1ccc(F)cc1 (stereo not drawn) | inactive |
| COc1ccc(C(O)C(CN2CCOCC2)c2ccccc2)cc1F (stereo not drawn) | inconclusive [activator, single point] |
| COc1cccc(/C=N/NC(=O)c2[nH]c(C)c(C(=O)N/N=C/c3cccc(OC)c3O)c2C)c1O | inconclusive [activator, full curve, poor fit] |
| COc1ccc(NS(=O)(=O)c2csc(C(=O)Nc3ccccc3)c2)cc1 | inconclusive [activator, full curve] |
